Assay results: the supplement of paper PMC10126150
Sequences with one replicate were seen in a single cluster, so their values are uncertain.

The sequences below were run on ATP (assay: switch fluorescence ratio, 500 uM ATP over buffer (Cy3 cluster intensity, sum of 5 cycles each) (fold (ratio)); higher = stronger signal-on switching upon ATP binding; sequences stand for … in TCGTCGGCAGCGTCAGATGTGTATAAGAGACAGTTTTTTTTTTTTTTTTTTTTTTTTT…TC). Conditions: aptamer strand: ATP DNA aptamer (quencher-CACCTGGGGGAGTATTGCGGAGGAAGG + anchor), 100 nM annealed; ATP concentration: 500 uM; one replicate.
Method in brief: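 Exposure to 500 uM ATP lasted 15 min at 22 °C before imaging, and a selection-buffer image was taken beforehand, for Cy3-labelled switching-strand clusters on a modified Illumina MiSeq flow-cell annealed to 100 nM quencher-labelled ATP aptamer. Five buffer/ATP cycles were run with NaOH stripping and re-annealing between them. The fluorescence ratio per cluster is summed target-cycle over summed buffer-cycle Cy3 intensity, averaged per switch-domain sequence. Clusters outside 100-1000 RFU were excluded.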

Row | Sequence | switch fluorescence ratio
1 | GAGAGGCGCT | 0.945
2 | GAGAGGTGCC | 1
3 | GAGAGGTGGA | 1.01
4 | GAGAGTGACG | 0.99
5 | GAGAGTGATT | 1.01
6 | GAGAGTGTTG | 0.968
7 | GAGATACAGT | 1.03
8 | GAGATAGCGA | 0.973
9 | GAGATAGGGC | 0.997
10 | GAGATATATT | 0.985
11 | GAGATCCCCC | 1.04
12 | GAGATCTACT | 0.987
13 | GAGATGACCC | 1.01
14 | GAGATGGGC | 1.15
15 | GAGATTAGAT | 0.991
16 | GAGATTCGCG | 0.981
17 | GAGATTGGCG | 1.02
18 | GAGCAAAGAG | 1.36
19 | GAGCAACAGT | 1.04
20 | GAGCAATGCA | 2.3
21 | GAGCACAATG | 1.07
22 | GAGCACGCCG | 0.997
23 | GAGCACTATG | 1.06
24 | GAGCACTGTG | 1.03
25 | GAGCAGCGAC | 1.03
26 | GAGCAGGGAA | 1.02

Row | Sequence | switch fluorescence ratio
27 | GAGCATCGGT | 1.05
28 | GAGCATGGGG | 0.998
29 | GAGCATGTAC | 4.56
30 | GAGCCTGAGA | 1.04
31 | GAGCGAAGAG | 0.996
32 | GAGCGATAAT | 1.1
33 | GAGCGCTGTG | 1.01
34 | GAGCGGGCGG | 1.02
35 | GAGCGTGTCA | 1.05
36 | GAGCTACGAC | 1.1
37 | GAGCTACTGG | 1.04
38 | GAGCTACTTC | 1.06
39 | GAGCTATCT | 1.03
40 | GAGCTATGA | 1.01
41 | GAGCTTCACC | 0.995
42 | GAGGAAAAT | 0.982
43 | GAGGACAATT | 1.05
44 | GAGGAGCCTG | 1.02
45 | GAGGAGTGTA | 0.961
46 | GAGGATAGAT | 0.996
47 | GAGGCAGGGC | 1.21
48 | GAGGCATTGA | 1.1
49 | GAGGCCGGGT | 1.07
50 | GAGGCCTCA | 1.02
51 | GAGGCGAGGG | 0.99
52 | GAGGCGCGCT | 1.07

Row | Sequence | switch fluorescence ratio
53 | GAGGCTTTGA | 1.01
54 | GAGGGACGTT | 1.01
55 | GAGGGAGAAC | 1.02
56 | GAGGGAGAT | 0.963
57 | GAGGGCCCAT | 0.974
58 | GAGGGCCGA | 1
59 | GAGGGCTTAT | 0.888
60 | GAGGGGGAAT | 0.986
61 | GAGGGGGAGT | 1.01
62 | GAGGGGTGAA | 0.987
63 | GAGGTACGAT | 0.996
64 | GAGGTACGGC | 1.07
65 | GAGGTAGGAG | 0.985
66 | GAGGTCTGA | 0.961
67 | GAGGTCTTTC | 1.02
68 | GAGGTGAGCT | 1.01
69 | GAGGTGGATG | 1.02
70 | GAGGTGGTCA | 1.05
71 | GAGTAACGTG | 0.946
72 | GAGTAATCTG | 1.02
73 | GAGTAGG | 1.01
74 | GAGTATTTTT | 1.03
75 | GAGTCAAGGT | 1.01
76 | GAGTCAGGCC | 1.02
77 | GAGTCATGTA | 0.999
78 | GAGTCCACAT | 1.27

Row | Sequence | switch fluorescence ratio
79 | GAGTCCAGGT | 2.09
80 | GAGTCTCACT | 0.984
81 | GAGTCTCAGT | 1.01
82 | GAGTCTGACC | 0.987
83 | GAGTCTGCTC | 1.02
84 | GAGTCTGGAC | 1.05
85 | GAGTCTGTTT | 0.964
86 | GAGTGACTC | 1.05
87 | GAGTGCCATT | 1
88 | GAGTGCCTGA | 1
89 | GAGTGGAACT | 0.998
90 | GAGTGGACAT | 1.03
91 | GAGTGGGGTC | 0.983
92 | GAGTGGTATC | 1.09
93 | GAGTGGTCCA | 1.03
94 | GAGTGGTGGT | 0.976
95 | GAGTGTCAGG | 1.02
96 | GAGTGTCGCA | 0.996
97 | GAGTGTGGCA | 1.03
98 | GAGTTAGAAT | 0.993
99 | GAGTTCAACG | 0.947
100 | GAGTTCCGAA | 1
101 | GAGTTCCTAT | 0.995
102 | GAGTTCTTGC | 1
103 | GAGTTTAACT | 0.973
104 | GAGTTTCTGC | 1.08

Row | Sequence | switch fluorescence ratio
105 | GAGTTTGTGA | 1.02
106 | GATAAAAGAC | 1.02
107 | GATAAACTTT | 0.984
108 | GATAAATCTC | 0.992
109 | GATAACGTAG | 0.989
110 | GATAACTGT | 1.02
111 | GATAAGAAGT | 1.03
112 | GATAATACCT | 1.37
113 | GATAATGTTG | 0.968
114 | GATACAGGGC | 1.03
115 | GATACATATT | 1.01
116 | GATACCATCA | 1.02
117 | GATACCGATG | 1.01
118 | GATACCTATT | 1.06
119 | GATACGGGGG | 0.92
120 | GATACTCAAA | 1.32
121 | GATACTGAAA | 1.07
122 | GATAGACAGA | 1.03
123 | GATAGAGTTC | 0.94
124 | GATAGCACAC | 1.48
125 | GATAGGGAAT | 1
126 | GATAGGTCGA | 0.953
127 | GATAGTCCAA | 0.995
128 | GATAGTGGCG | 0.975
129 | GATAGTTTCT | 0.976
130 | GATAGTTTTA | 0.962

Row | Sequence | switch fluorescence ratio
131 | GATATAAGCA | 1.01
132 | GATATCAAC | 0.953
133 | GATATCGAAT | 1.02
134 | GATATCTTA | 1.01
135 | GATATGCTGA | 1
136 | GATATGGAAC | 0.968
137 | GATATTGGAA | 0.965
138 | GATATTGGCT | 1.01
139 | GATATTGTGC | 1
140 | GATCAAGCAA | 1.64
141 | GATCACTTTA | 1.05
142 | GATCCAAGTA | 0.994
143 | GATCCAATTG | 1.02
144 | GATCCACCTG | 1.04
145 | GATCCAGACA | 0.977
146 | GATCCCCTGA | 1.33
147 | GATCCCTTTT | 0.986
148 | GATCCGGTGC | 1.09
149 | GATCCGTTTG | 0.976
150 | GATCCTATTT | 0.963
151 | GATCCTTCCG | 2.35
152 | GATCCTTTAG | 1
153 | GATCGAAGTC | 0.988
154 | GATCGAGAGC | 0.943
155 | GATCGCCATA | 1.05
156 | GATCGCCCGG | 1.08

Row | Sequence | switch fluorescence ratio
157 | GATCGCCGTC | 0.989
158 | GATCGCGGGG | 1.04
159 | GATCGCTGC | 1.41
160 | GATCGGAGTA | 0.937
161 | GATCGGATA | 0.998
162 | GATCTCCGTA | 1.03
163 | GATCTGGAGT | 1.01
164 | GATCTTGTT | 1
165 | GATCTTTTC | 1.05
166 | GATGAAAATG | 1.01
167 | GATGAAACAA | 1.01
168 | GATGAACTTT | 1
169 | GATGAAGAAT | 1.01
170 | GATGAAGGGC | 1.07
171 | GATGAAGTTC | 0.998
172 | GATGACGCGC | 1.52
173 | GATGACGGAA | 1.04
174 | GATGACGTGG | 1.03
175 | GATGACTGTA | 1.15
176 | GATGATCGAG | 1.03
177 | GATGATGAGT | 1.01
178 | GATGATGTGC | 0.97
179 | GATGATTAAT | 0.986
180 | GATGATTCAT | 1
181 | GATGATTGCG | 0.988
182 | GATGCAAGTC | 1.28

Row | Sequence | switch fluorescence ratio
183 | GATGCAGAAT | 0.983
184 | GATGCCATGA | 1.04
185 | GATGCCGGGT | 1.84
186 | GATGCCTACT | 1.03
187 | GATGCCTGTG | 0.987
188 | GATGCTCTTG | 0.973
189 | GATGCTGTGT | 1.05
190 | GATGCTTGCC | 0.998
191 | GATGGAGCAT | 1.22
192 | GATGGAGTCG | 0.994
193 | GATGGCTGGG | 1.03
194 | GATGGCTTAG | 0.959
195 | GATGGGAGA | 0.967
196 | GATGGGATCA | 0.948
197 | GATGGGATTC | 0.986
198 | GATGGGCAGT | 0.979
199 | GATGGGGCAT | 0.933
200 | GATGGGGCCG | 0.997
201 | GATGGTCGGG | 0.955
